The full ranking holds about 33,000 sequences; the median of “E-score (-0.5 to 0.5)” is about -0.054, and the highest 2% start at about 0.39. The list shows a part of the results.
Target: Ylr278c (UniProt Q05854)
Assay: PBM E-score (8-mer binding enrichment) (E-score (-0.5 to 0.5)); higher = stronger / more preferred TF binding; most listed sequences are background and not binding sites
Settings: protein concentration: 200 nM; construct: GST-DNA-binding domain
In short: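 Yeast transcription factors carrying a GST tag, as full-length proteins or DNA-binding domains, were produced by PURExpress in vitro transcription/translation. About 100-200 nM protein was applied to universal all-10-mer Agilent arrays, double-stranded by primer extension on fresh or once-stripped slides. Bound protein was detected with fluorescent anti-GST, and scans were normalised with masliner. The Universal PBM Analysis Suite gave each ungapped eight-base word, pooled with its reverse complement, an E-score, a modified Wilcoxon-Mann-Whitney statistic.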

Sequence	PBM E-score
AGGAATGA	-0.129
GTGCGACA	-0.011
AGTTAGTC	0.0844
ACGCAAGT	-0.195
CGTATCGA	-0.228
CGTGGGCA	-0.16
CCACTCGA	-0.215
AACATTGA	-0.186
CGTGAGAA	-0.0134
CGCGGGAC	0.305
CATGGCAC	0.133
CACTTCCG	0.271
CCGGTGAC	0.297
ACTAGCAC	-0.156
CTCCGATA	0.462
AGTTGTAA	-0.216
ATTTTATA	0.138
GCTTCTAC	-0.123
AGCAATGG	-0.0209
GACCAGTC	-0.0978
ATGGTGAG	-0.236
AGGACAGA	-0.225
CTTGAATA	-0.0169
CCTCCCAA	-0.0257
ACGCTGCT	-0.153

Sequence	PBM E-score
GAACTAGA	-0.0703
GGAGGAGA	0.13
CAAATTGC	0.0276
CGTCTCTA	-0.114
ATATGCTA	-0.0729
GCAAATAA	0.124
AACCGTCA	-0.145
CTGGCGAC	-0.273
AACCTTCG	0.0316
TTGTCAAA	-0.0285
GTACTCAC	-0.124
AAGTAAAG	0.00681
TAGGTAGA	-0.202
ATTCCCAG	0.191
CCTTCAAA	0.0759
CAGGCTGC	-0.284
GTATTAAA	0.0419
CCTAACAA	-0.218
CATCGCTC	0.0563
TAACGGTA	-0.161
TACTTTGA	-0.223
GGGTCCGA	0.366
GGATCGCA	-0.0558
CCAGGAGA	-0.0398
CATGGAGA	-0.0191

Sequence	PBM E-score
CCTGATAA	-0.208
CCCCTAAA	-0.0849
ATTAGGAG	0.0759
CCGATAAC	0.363
ACAGTGAT	-0.19
AATGCGGG	0.299
ATGGAAGC	-0.00732
CAGACATC	-0.143
GTTTTGAA	-0.158
GGCGGTAA	0.313
CCAAGTGA	-0.121
ATCGCACC	0.0302
AAGGTTCC	0.0514
GGCGTACC	0.11
CATAGATA	-0.0509
TTCGCGAA	0.169
CGGAAAGC	0.336
AAACTTAG	-0.113
ATCTGCCC	0.0953
TCGATACA	-0.102
ATAAAGCA	-0.125
ATATCAAG	-0.0191
CATACAGG	-0.231
AGATGTAA	-0.00025
CCCCTGAG	-0.18

Sequence	PBM E-score
CTATCATC	0.0685
ACTGAGGG	-0.251
CGGTCCAA	0.104
AGGAACTA	-0.0554
ATAGGAAG	-0.215
ATGCCAGG	-0.0491
CGTGATCA	-0.0575
AATCGTTA	-0.0844
TCCACGGA	0.406
ATATGCCC	-0.0979
GGCGCTGA	0.136
ATCATGGC	-0.125
ACATGTCG	-0.0102
GTTTTCAA	0.0165
GGAGCATA	0.211
CCGCCACG	0.141
CACCGTTC	-0.0165
ACTTGGTC	0.0686
ACTATGGG	-0.0735
AGTCGTCC	-0.0402
ACTGCCAC	-0.27
AAGCATAC	-0.161
GTCAATGA	-0.211
CTGAGATA	-0.0373
ACTGAGCT	0.0262

Sequence	PBM E-score
AAAGACTT	-0.182
CAAGGCGC	0.0157
AAAATGCG	0.151
GGGTGCAA	0.129
TAAAGATA	-0.0605
GGGAAAGA	-0.0683
CTTCACTA	-0.0407
ACGCTAGA	-0.15
ACCGAGGA	0.103
TAGTGCCA	-0.192
ATCAAGTA	-0.0983
TAGTAAAA	-0.04
CCATACGA	-0.198
ACAATCTG	-0.116
AGTATGTA	-0.105
ACACCGGC	0.355
CGACTGTA	-0.139
AAGCAGTC	-0.122
TATCCTAA	-0.128
CCAGCTCC	0.22
GAATTGCA	0.0586
ATACCTAC	-0.0517
GATGACCC	-0.216
ACTCGAAC	-0.163
AGACTGCG	-0.114

Sequence	PBM E-score
TATTCTGA	-0.109
CTATGGAG	-0.29
AAGTTTAC	-0.103
GCTTGAGA	-0.136
AGTACGGC	0.108
ATAGTTTA	-0.174
CTAGACGA	-0.268
ACACCGGG	0.341
AGACTGGG	-0.187
AACAAGAG	-0.097
CATGCCAC	-0.167
AAAATTAA	0.0191
CTTTCACA	-0.0382
GCGGCCTA	0.0197
CTACTCAG	-0.274
TACGTGAA	-0.244
CTAAGGGA	-0.169
AGCGGTCC	0.222
AATGCCTG	-0.129
CCCGACGG	0.341
ATAAGTTC	0.215
TATCGCCA	-0.129
CATCACAA	-0.173
TATCGACA	-0.13
ACAAGTCT	-0.258

Sequence	PBM E-score
AGACATAT	-0.0842
CACTCGTC	-0.0408
GAACTACA	0.0153
GTGATCCA	-0.102
AAAGCCGG	0.391
AGCGGCGC	0.0739
CGACATCA	0.129
GGGAGCCA	-0.264
AGATAGTA	-0.18
GCCCTTAA	-0.0754
GAAGGGTC	-0.0007
AGGTTTGG	-0.138
ACAAGTCC	0.161
ATCTAGAT	-0.314
CAGTGCCA	-0.371
ATCAGTCA	-0.146
ATGAACTC	-0.0295
CTCTTAGC	-0.0954
GAATAACA	0.0628
AGGAGAAA	-0.0288
CTCTATGA	-0.324
AAATTGCG	0.197
